According to the supplement of paper PMC8728848:
The other results are listed elsewhere or left out.

Experiments:
Test in all cases: glycan array binding signal (z-score within array); higher = stronger binding
Conditions in all cases: glycan notation: IUPAC condensed, linker removed
[1] = target: Fuc(a1-2)[Gal(a1-3)]Gal(b1-4)GlcNAc(b1-2)Man(a1-3)[Fuc(a1-2)[Gal(a1-3)]Gal(b1-4)GlcNAc(b1-2)Man(a1-6)]Man(b1-4)GlcNAc(b1-4)[Fuc(a1-6)]GlcNAc
Procedure, shortened: (§1)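 The Consortium for Functional Glycomics database supplied 3228 glycan arrays, of which those lacking an available protein sequence were dropped. The binding signal, a within-array Z-score, was averaged across arrays of the same protein sequence and across linkers. Negative scores can be read as non-binding.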

[2] = target: Fuc(a1-2)[Gal(a1-3)]Gal(b1-4)GlcNAc(b1-3)GalNAc
Procedure, shortened: as §1

[3] = target: Fuc(a1-2)[Gal(a1-3)]Gal(b1-4)GlcNAc(b1-3)[Fuc(a1-2)[Gal(a1-3)]Gal(b1-4)GlcNAc(b1-6)]GalNAc
Procedure, shortened: as §1

[4] = target: Fuc(a1-2)[Gal(a1-3)]Gal(b1-4)GlcNAc(b1-6)GalNAc
Procedure, shortened: as §1

[5] = target: Fuc(a1-2)[Gal(a1-3)]Gal(b1-4)[Fuc(a1-3)]Glc
Procedure, shortened: as §1

[6] = target: Fuc(a1-2)[Gal(a1-3)]Gal(b1-4)[Fuc(a1-3)]GlcNAc
Procedure, shortened: as §1

[7] = target: Fuc(a1-2)[Gal(a1-3)]Gal(b1-4)[Fuc(a1-3)]GlcNAc(b1-3)GalNAc
Procedure, shortened: as §1

[8] = target: Fuc(a1-2)[Gal(a1-4)]Gal(b1-4)GlcNAc
Procedure, shortened: as §1

[9] = target: Fuc(a1-2)[GalNAc(a1-3)]Gal
Procedure, shortened: as §1

[10] = target: Fuc(a1-2)[GalNAc(a1-3)]Gal(b1-3)GalNAc(a1-3)[Fuc(a1-2)]Gal(b1-4)GlcNAc
Procedure, shortened: as §1

[11] = target: Fuc(a1-2)[GalNAc(a1-3)]Gal(b1-3)GalNAc(b1-3)Gal(a1-4)Gal(b1-4)Glc
Procedure, shortened: as §1

[12] = target: Fuc(a1-2)[GalNAc(a1-3)]Gal(b1-3)GlcNAc
Procedure, shortened: as §1

[13] = target: Fuc(a1-2)[GalNAc(a1-3)]Gal(b1-3)GlcNAc(b1-2)Man(a1-3)[Fuc(a1-2)[GalNAc(a1-3)]Gal(b1-3)GlcNAc(b1-2)Man(a1-6)]Man(b1-4)GlcNAc(b1-4)GlcNAc
Procedure, shortened: as §1

[14] = target: Fuc(a1-2)[GalNAc(a1-3)]Gal(b1-3)GlcNAc(b1-2)Man(a1-3)[Fuc(a1-2)[GalNAc(a1-3)]Gal(b1-3)GlcNAc(b1-2)Man(a1-6)]Man(b1-4)GlcNAc(b1-4)[Fuc(a1-6)]GlcNAc
Procedure, shortened: as §1

[15] = target: Fuc(a1-2)[GalNAc(a1-3)]Gal(b1-3)GlcNAc(b1-3)GalNAc
Procedure, shortened: as §1

[16] = target: Fuc(a1-2)[GalNAc(a1-3)]Gal(b1-3)GlcNAc(b1-6)GalNAc
Procedure, shortened: as §1

[17] = target: Fuc(a1-2)[GalNAc(a1-3)]Gal(b1-4)Glc
Procedure, shortened: as §1

[18] = target: Fuc(a1-2)[GalNAc(a1-3)]Gal(b1-4)GlcNAc
Procedure, shortened: as §1

[19] = target: Fuc(a1-2)[GalNAc(a1-3)]Gal(b1-4)GlcNAc(b1-2)Man
Procedure, shortened: as §1

[20] = target: Fuc(a1-2)[GalNAc(a1-3)]Gal(b1-4)GlcNAc(b1-2)Man(a1-3)[Fuc(a1-2)[GalNAc(a1-3)]Gal(b1-4)GlcNAc(b1-2)Man(a1-6)]Man(b1-4)GlcNAc(b1-4)GlcNAc
Procedure, shortened: as §1

[21] = target: Fuc(a1-2)[GalNAc(a1-3)]Gal(b1-4)GlcNAc(b1-2)Man(a1-3)[Fuc(a1-2)[GalNAc(a1-3)]Gal(b1-4)GlcNAc(b1-2)Man(a1-6)]Man(b1-4)GlcNAc(b1-4)[Fuc(a1-6)]GlcNAc
Procedure, shortened: as §1

[22] = target: Fuc(a1-2)[GalNAc(a1-3)]Gal(b1-4)GlcNAc(b1-3)Gal(b1-4)GlcNAc
Procedure, shortened: as §1

[23] = target: Fuc(a1-2)[GalNAc(a1-3)]Gal(b1-4)GlcNAc(b1-3)Gal(b1-4)GlcNAc(b1-3)Gal(b1-4)GlcNAc
Procedure, shortened: as §1

[24] = target: Fuc(a1-2)[GalNAc(a1-3)]Gal(b1-4)GlcNAc(b1-3)GalNAc
Procedure, shortened: as §1

[25] = target: Fuc(a1-2)[GalNAc(a1-3)]Gal(b1-4)GlcNAc(b1-3)[Fuc(a1-2)[GalNAc(a1-3)]Gal(b1-4)GlcNAc(b1-6)]GalNAc
Procedure, shortened: as §1

[26] = target: Fuc(a1-2)[GalNAc(a1-3)]Gal(b1-4)GlcNAc(b1-6)GalNAc
Procedure, shortened: as §1

[27] = target: Fuc(a1-2)[GalNAc(a1-3)]Gal(b1-4)[Fuc(a1-3)]GlcNAc
Procedure, shortened: as §1

[28] = target: Fuc(a1-2)[GalNAc(a1-3)]Gal(b1-4)[Fuc(a1-3)]GlcNAc(b1-3)GalNAc
Procedure, shortened: as §1

[29] = target: Fuc(a1-2)[GalNAc(a1-4)]Gal(b1-4)GlcNAc
Procedure, shortened: as §1

[30] = target: Fuc(a1-2)[GalNAc(b1-3)]Gal
Procedure, shortened: as §1

[31] = target: Fuc(a1-3)GlcNAc
Procedure, shortened: as §1

[32] = target: Fuc(a1-3)[Gal(b1-4)]Glc6S
Procedure, shortened: as §1

[33] = target: Fuc(a1-3)[Gal(b1-4)]GlcNAc
Procedure, shortened: as §1

[34] = target: Fuc(a1-3)[Gal(b1-4)]GlcNAc(b1-2)Man
Procedure, shortened: as §1

[35] = target: Fuc(a1-3)[Gal(b1-4)]GlcNAc(b1-2)Man(a1-3)[Fuc(a1-3)[Gal(b1-4)]GlcNAc(b1-2)Man(a1-6)]Man(b1-4)GlcNAc(b1-4)GlcNAc
Procedure, shortened: as §1

[36] = target: Fuc(a1-3)[Gal(b1-4)]GlcNAc(b1-2)Man(a1-3)[Fuc(a1-3)[Gal(b1-4)]GlcNAc(b1-2)Man(a1-6)]Man(b1-4)GlcNAc(b1-4)[Fuc(a1-6)]GlcNAc
Procedure, shortened: as §1

[37] = target: Fuc(a1-3)[Gal(b1-4)]GlcNAc(b1-3)Gal(b1-3)[Fuc(a1-4)]GlcNAc
Procedure, shortened: as §1

[38] = target: Fuc(a1-3)[Gal(b1-4)]GlcNAc(b1-3)Gal(b1-4)[Fuc(a1-3)]GlcNAc
Procedure, shortened: as §1

[39] = target: Fuc(a1-3)[Gal(b1-4)]GlcNAc(b1-3)Gal(b1-4)[Fuc(a1-3)]GlcNAc(b1-3)Gal(b1-4)[Fuc(a1-3)]GlcNAc
Procedure, shortened: as §1

[40] = target: Fuc(a1-3)[Gal(b1-4)]GlcNAc(b1-3)GalNAc
Procedure, shortened: as §1

[41] = target: Fuc(a1-3)[Gal(b1-4)]GlcNAc(b1-6)GalNAc
Procedure, shortened: as §1

[42] = target: Fuc(a1-3)[Gal(b1-4)]GlcNAc(b1-6)[Gal(b1-3)GlcNAc(b1-3)]Gal(b1-4)Glc
Procedure, shortened: as §1

[43] = target: Fuc(a1-3)[Gal(b1-4)]GlcNAc6S
Procedure, shortened: as §1

[44] = target: Fuc(a1-3)[Gal3S(b1-4)]Glc
Procedure, shortened: as §1

[45] = target: Fuc(a1-3)[Gal3S(b1-4)]GlcNAc
Procedure, shortened: as §1

[46] = target: Fuc(a1-3)[Gal3S(b1-4)]GlcNAc6S
Procedure, shortened: as §1

[47] = target: Fuc(a1-3)[GalNAc(b1-4)]GlcNAc
Procedure, shortened: as §1

[48] = target: Fuc(a1-3)[GalNAc(b1-4)]GlcNAc6S
Procedure, shortened: as §1

[49] = target: Fuc(a1-4)GlcNAc
Procedure, shortened: as §1

[50] = target: Fuc(b1-3)GlcNAc
Procedure, shortened: as §1

[51] = target: Gal(a1-2)Gal
Procedure, shortened: as §1

[52] = target: Gal(a1-3)Gal
Procedure, shortened: as §1

[53] = target: Gal(a1-3)Gal(b1-3)GlcNAc
Procedure, shortened: as §1

[54] = target: Gal(a1-3)Gal(b1-3)GlcNAc(b1-2)Man
Procedure, shortened: as §1

[55] = target: Gal(a1-3)Gal(b1-3)GlcNAc(b1-2)Man(a1-3)[Gal(a1-3)Gal(b1-3)GlcNAc(b1-2)Man(a1-6)]Man(b1-4)GlcNAc(b1-4)GlcNAc
Procedure, shortened: as §1

[56] = target: Gal(a1-3)Gal(b1-3)GlcNAc(b1-3)GalNAc
Procedure, shortened: as §1

[57] = target: Gal(a1-3)Gal(b1-3)GlcNAc(b1-6)GalNAc
Procedure, shortened: as §1

[58] = target: Gal(a1-3)Gal(b1-3)[Fuc(a1-4)]GlcNAc(b1-2)Man(a1-3)[Gal(a1-3)Gal(b1-3)[Fuc(a1-4)]GlcNAc(b1-2)Man(a1-6)]Man(b1-4)GlcNAc(b1-4)GlcNAc
Procedure, shortened: as §1

[59] = target: Gal(a1-3)Gal(b1-4)Glc
Procedure, shortened: as §1

[60] = target: Gal(a1-3)Gal(b1-4)GlcNAc
Procedure, shortened: as §1

B1: PX9937F-bfa-516-16-516 (Bacteroides fragilis) (protein)
chain: LDIDPTSSIADSNYWKTEAQFSTFNVGLHALLRECSFNFFLLGEPRADIYGDVPFGGEATQGMERLPFNTINKENTGISNFAGMYKVINQINLMIAKTKETTVLSEAGKNYYLGEAYGMRAYLYFHLLRSWGDVILYLDYTNGASLDLSNLSKAASPAEEVMKQIKEDITASEKGFGSDYSFKYGRYYWSMAATQMLKGEVYLWSGRQMGGGTADYTTAKTALQSIVSNANVSLQDDFSKVFAYNNKDNSEIIFSIRNAKDEYNMWDDRFRQNLVPQQAYMTSTYCNKEGVSFKDLPEGQLNGLIRLQIRYDLYNKAFRDGDTRKDASMTAVYQKQQDGTVKYIAPFCNKYQGVLLDGASQRSFLNDYPIYRYADCLLLLAEAKALLGEDPTAEINQVRERAYGKEFFEANKATLAYPNDKGDFYTDNKYMSGDEDPLEAILKERMREFMFEGKRWYDLRLLGADYVTKRTSAVATRLLWPINESVLTDNPALKQTPGYQN
[1]
  glycan array binding signal (z-score): -0.006
[2]
  glycan array binding signal (z-score): 0.046
[3]
  glycan array binding signal (z-score): -0.377
[4]
  glycan array binding signal (z-score): 0.021
[5]
  glycan array binding signal (z-score): -0.265
[6]
  glycan array binding signal (z-score): -0.039
[7]
  glycan array binding signal (z-score): -0.058
[8]
  glycan array binding signal (z-score): -0.237
[9]
  glycan array binding signal (z-score): -0.222
[10]
  glycan array binding signal (z-score): -0.369
[11]
  glycan array binding signal (z-score): -0.334
[12]
  glycan array binding signal (z-score): -0.122
[13]
  glycan array binding signal (z-score): -0.141
[14]
  glycan array binding signal (z-score): -0.135
[15]
  glycan array binding signal (z-score): -0.037
[16]
  glycan array binding signal (z-score): 0.016
[17]
  glycan array binding signal (z-score): -0.23
[18]
  glycan array binding signal (z-score): -0.319
[19]
  glycan array binding signal (z-score): -0.254
[20]
  glycan array binding signal (z-score): 2.69
[21]
  glycan array binding signal (z-score): -0.174
[22]
  glycan array binding signal (z-score): -0.188
[23]
  glycan array binding signal (z-score): -0.001
[24]
  glycan array binding signal (z-score): 0.767
[25]
  glycan array binding signal (z-score): 0.164
[26]
  glycan array binding signal (z-score): -0.015
[27]
  glycan array binding signal (z-score): -0.175
[28]
  glycan array binding signal (z-score): -0.123
[29]
  glycan array binding signal (z-score): 0.892
[30]
  glycan array binding signal (z-score): 1.64
[31]
  glycan array binding signal (z-score): -0.041
[32]
  glycan array binding signal (z-score): 0.074
[33]
  glycan array binding signal (z-score): -0.071
[34]
  glycan array binding signal (z-score): -0.261
[35]
  glycan array binding signal (z-score): -0.045
[36]
  glycan array binding signal (z-score): 0.591
[37]
  glycan array binding signal (z-score): -0.161
[38]
  glycan array binding signal (z-score): -0.038
[39]
  glycan array binding signal (z-score): -0.262
[40]
  glycan array binding signal (z-score): -0.327
[41]
  glycan array binding signal (z-score): -0.091
[42]
  glycan array binding signal (z-score): -0.077
[43]
  glycan array binding signal (z-score): -0.414
[44]
  glycan array binding signal (z-score): -0.283
[45]
  glycan array binding signal (z-score): -0.036
[46]
  glycan array binding signal (z-score): -0.134
[47]
  glycan array binding signal (z-score): 0.75
[48]
  glycan array binding signal (z-score): 0.193
[49]
  glycan array binding signal (z-score): -0.192
[50]
  glycan array binding signal (z-score): -0.353
[51]
  glycan array binding signal (z-score): 0.437
[52]
  glycan array binding signal (z-score): -0.019
[53]
  glycan array binding signal (z-score): 1.46
[54]
  glycan array binding signal (z-score): -0.215
[55]
  glycan array binding signal (z-score): -0.137
[56]
  glycan array binding signal (z-score): -0.071
[57]
  glycan array binding signal (z-score): -0.3
[58]
  glycan array binding signal (z-score): -0.016
[59]
  glycan array binding signal (z-score): -0.286
[60]
  glycan array binding signal (z-score): -0.429
